The values below come from the RNAGym collection of RNA variant scans (doi:10.1093/nar/gkz1192).

First the molecules themselves.
B1: CPEB3 Ribozyme (parent)
chain: UAACAGGGGGCCACAGCAGAAGCGUUCACGUCGCAGCCCCUGUCAGAUUCUGGUGAAUCUGCGAAUUCUGCUGUAUAUCUC

The source gives no read counts; variants with many changes may rest on few reads.

This data set covers variants of B1. Nature of the data set: self-cleavage, relative activity (ratio to wild type); higher = more cleavage; in vitro, sequencing. Put shortly:
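For each CPEB3 ribozyme variant, relative activity is its cleaved/total read fraction divided by the unmutated ribozyme's. Barcoded error-prone PCR libraries were transcribed by T7 RNA polymerase (5 hours, 37°C) and held in DNase I for 15 min before an EDTA stop, with cleavage occurring throughout. Template-switching reverse transcription and Illumina sequencing were used to read the RNAs. A 5-read minimum applied, and results are the mean of three batches.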
Turning to U25C A35G G36A U58C, the self-cleavage was 0.17.
The same measure for U25C A35G G46A G52A U72A: 0.05.
As to U25A U43C A56G U58G C59A A75G, the self-cleavage is 0.13.
In the case of U25C A57U U76C it was 0.13; in that of U25A U48A U76A A77G, 0.05; in that of U25C A47G A56G A77U U80A, 0.06.
Consider U25C A47G U67A U78C, for which the self-cleavage worked out at 0.06.
For the variant U25C A45G A56U A64U, the self-cleavage was found to be 0.22.
The same measure for U25C A35U U78C: 0.09.
For the variant U25C A28U A47G U78C, the self-cleavage stood at 0.15.
In the case of U25C A28G U72A A75G it was 0.07; in that of U25C A45G U69C, 0.17; in that of U25A U67C U78A, 0.14.
The same measure for U25A U49C U58C A64G: 0.26.
Regarding U25C C29U U43C U69C, the self-cleavage is 0.16.
The same measure for U25C C29U U31A U72C: 0.06; for U25C C29G A35G A45C: 0.18; for U25C A35G C37A A65U U72C: 0.21.
Regarding U25C A57G U78A U80C, the self-cleavage is 0.18.
In the case of U25C A47G U54C A56G C62U A64U, the self-cleavage came to 0.06.
In the case of U25C A35C U49A it was 0.23.
In the case of U25C A65G U74C, the self-cleavage came out at 0.18.
As to U25C A65G U74A, the self-cleavage was 0.27.
For the variant U25C C32U A47U U78A, the self-cleavage was found to be 0.21.
Take U25C A35G A56G A77G: the self-cleavage turned out to be 0.33.
Take U25C A28G U72A U78C: the self-cleavage was 0.14.
Take U25A U51A G63C A64C: the self-cleavage was determined as 0.08.
In the case of U25C A28U A56G U58A G73A it was 0.08; in that of U25C A28U U67C A77U U80C, 0.09.
For U25C C32U A35G, the self-cleavage was found to be 0.39.
Consider U25A U49C U67C, for which the self-cleavage amounted to 0.12.
The same measure for U25C C29U A47U: 0.22; for U25C A45G U80A: 0.49.
On to U25C A35U C40U U43C A45U A65G, for which the self-cleavage is 0.11.
Regarding U25C C29G A64G, the self-cleavage turned out to be 0.56.
Take U25C A65U U74A: the self-cleavage was found to be 0.18.
In the case of U25C A28G A47U, the self-cleavage was found to be 0.21.
The same measure for U25C A56U C62U: 0.49; for U25C A45G C68A: 0.17; for U25C C37A U49C: 0.06.
With U25A U41C G42A A64U U67A U74A, the self-cleavage was 0.07.
As to U25C A28C A35U A64G, the self-cleavage worked out at 0.08.
Take U25C A45U A47U U49C U54C: the self-cleavage worked out at 0.05.
Consider U25C A28G U49C U72C U74C, for which the self-cleavage turned out to be 0.07.
As for U25C A35U C44A, the self-cleavage came to 0.22.
Take U25C A35G U51A A65C: the self-cleavage was 0.24.
With U25C A45U G55U U72A, the self-cleavage stood at 0.24.
In the case of U25C A28C U31A U43C it was 0.09.
For the variant U25C A35U A47U, the self-cleavage amounted to 0.16.
In the case of U25C A28U G33C U41G A45C U58C U69C it was 0.07; in that of U25C A45G U51A U69C, 0.12; in that of U25C A35U U43A U48C, 0.08.
For the variant U25C A57U U72C U80C, the self-cleavage amounted to 0.55.
Consider U25C C32A A45U G70C U78C, for which the self-cleavage turned out to be 0.11.
For U25C A28G C39G U48C U69A U78C, the self-cleavage is 0.12.
Take U25C C29U U49G U54G: the self-cleavage was 0.09.
In the case of U25C A28G U43A A47G, the self-cleavage is 0.07.
Turning to U25C A45U U48C, the self-cleavage was 0.06.
In the case of U25C C37U U48A U49C U67C it was 0.05.
In the case of U25C A28U A45U U74A it was 0.18; in that of U25A U43C C44U, 0.17; in that of U25C A28G A56G C68A U78C, 0.13.
As to U25C A45G U76A A77G, the self-cleavage is 0.39.
As for U25A U66C C68A, the self-cleavage is 0.39.
As to U25C C34U U41C A64G U76A, the self-cleavage stood at 0.07.
On to U25A U43A A56G U69C U76C, for which the self-cleavage was found to be 0.14.
Consider U25C A35G A65G, for which the self-cleavage turned out to be 0.15.
Consider U25C A28G U60A A65G U67C A75G, for which the self-cleavage turned out to be 0.13.
U25C C37A C39A U48C A57G U69C: the self-cleavage turned out to be 0.03.
Take U25C A35G U54A: the self-cleavage was 0.42.
Consider U25A U67C U80G, for which the self-cleavage is 0.42.
For the variant U25C A28U A47G, the self-cleavage came to 0.17.
The same measure for U25C C29U C40U: 0.21.
As for U25C C29U A64U A77G U80C, the self-cleavage is 0.1.
The same measure for U25C A45U A47G U48C U54C: 0.13; for U25C C27G C37G A45U A64G: 0.14; for U25C A35U A64U: 0.33.
Turning to U25C A45G C68U C79G, the self-cleavage is 0.53.
On to U25C A35U U41A C68U, for which the self-cleavage was 0.06.
As for U25A U43C U58C, the self-cleavage was determined as 0.34.
On to U25C A28G U58A, for which the self-cleavage worked out at 0.19.
On to U25C A45G U69A U76C U78C, for which the self-cleavage amounted to 0.06.
For U25C C29U A47U U78C, the self-cleavage came to 0.13.
Regarding U25A U60A G73U, the self-cleavage turned out to be 0.2.
For U25C A35U C40A U67C, the self-cleavage was 0.13.
Take U25C A45U U72C: the self-cleavage was determined as 0.2.
For the variant U25A U60C A64U, the self-cleavage came to 0.11.
For the variant U25C A28G U72C, the self-cleavage amounted to 0.31.
Turning to U25C A28G U72G, the self-cleavage was determined as 0.11.
As to U25C C38A C62G, the self-cleavage was 0.23.
As for U25C A28U U49A, the self-cleavage worked out at 0.39.
As to U25C C34U G42A A65G A77U, the self-cleavage turned out to be 0.06.
The same measure for U25C A35C U58A A64U: 0.19.
The same measure for U25C C38A U54A U69C U78C: 0.17; for U25C C27A C34G: 0.22.
With U25A U78A U80C, the self-cleavage was 0.21.
In the case of U25C A35G U51G, the self-cleavage was determined as 0.35.
Turning to U25C A35G U51C, the self-cleavage worked out at 0.27.
Consider U25C A28U U66C, for which the self-cleavage came out at 0.13.
Turning to U25C C38G A47U U48C U51C U54C U58A, the self-cleavage is 0.03.
Consider U25C A45G U58C A64G A77G, for which the self-cleavage was determined as 0.07.
On to U25C A56U C59U U74C, for which the self-cleavage stood at 0.08.
U25A U49A U72C: the self-cleavage was determined as 0.22.
On to U25C A45C U76C U78C, for which the self-cleavage worked out at 0.26.
In the case of U25C A35G U43A U74C U80C it was 0.24; in that of U25C C38U A56G U76A, 0.05.
The same measure for U25C A45G G46U: 0.22.
Take U25A U49A U51C G63C U67C U74C U78C: the self-cleavage is 0.08.
In the case of U25A U51C A75U it was 0.33; in that of U25C A47G U49C U51A, 0.22.
For the variant U25A U60C U72C, the self-cleavage was determined as 0.26.
With U25C A28G U67C U78C, the self-cleavage amounted to 0.06.
In the case of U25A U43A A65U it was 0.26; in that of U25C A28U U43A U69A U72A, 0.08; in that of U25C A47G A56U, 0.75.
As to U25C A45U C71A A77G, the self-cleavage amounted to 0.11.
Turning to U25C A35U A45U A56G, the self-cleavage was 0.19.
As for U25A U41C U51G U80C, the self-cleavage stood at 0.24.
Regarding U25C A28U A56G C62U A64G U69C U80A, the self-cleavage turned out to be 0.06.
As to U25C A45U A64U U72C U80C, the self-cleavage was found to be 0.15.
As to U25A U49A U60A, the self-cleavage stood at 0.15.
U25C A47G U60A A75G: the self-cleavage worked out at 0.19.
The same measure for U25C A64U U78C: 0.33; for U25A U43A A45G U67C U72C U74C U78C: 0.06.
The same measure for U25C C37U C39A: 0.19; for U25C C29A A45G A47G U78C U80C: 0.12.
With U25C A47G U60C U72C, the self-cleavage came to 0.25.
With U25C A28G U41C A45G U58C, the self-cleavage was 0.31.
For the variant U25A U41C U43G U49C G63U, the self-cleavage stood at 0.06.
Consider U25C A35G U48C, for which the self-cleavage amounted to 0.39.
The same measure for U25C C32U G33A G63C U72A U74A: 0.07; for U25C A47G U66G: 0.49.
On to U25C C32U U58C, for which the self-cleavage is 0.37.
U25A U76C A77U: the self-cleavage is 0.22.
On to U25A U67A U72G U74C, for which the self-cleavage worked out at 0.27.
As for U25A U49C U67A U78C, the self-cleavage is 0.41.
U25C A28G U66A: the self-cleavage came out at 0.47.
U25A U41C U54A: the self-cleavage is 0.19.
Turning to U25C C29A U51A A77G U78C, the self-cleavage was found to be 0.12.
For U25C A28G U60C U78A, the self-cleavage was 0.19.
In the case of U25C A47G U76C A77U it was 0.28.
The same measure for U25C C34U A45G: 0.2; for U25C C34U U54A U72A: 0.08.
Turning to U25A U41C U49C U51C U58C U74A, the self-cleavage worked out at 0.24.
U25C C34A U41C U76G: the self-cleavage was 0.15.
Take U25C A28G U31A G33U U69A: the self-cleavage turned out to be 0.07.
Regarding U25C A45C U72C, the self-cleavage came out at 0.19.
For the variant U25C A56C U67C U78C, the self-cleavage was determined as 0.06.
Take U25A U51A U54A A65G U78A: the self-cleavage was determined as 0.12.
Consider U25C A64G U66C, for which the self-cleavage turned out to be 0.19.
The same measure for U25C A35G U41C A45C U78C: 0.1; for U25C A35C G46A: 0.2.
In the case of U25C A45G A64U U80G it was 0.06.
For U25C A56U A77G, the self-cleavage amounted to 0.14.
In the case of U25C A35G U41A A57G U66C it was 0.1; in that of U25C C29G C39A, 0.06.
In the case of U25A U76A A77G it was 0.1; in that of U25C C29G U31C C44U U51G U66C U80C, 0.05.
In the case of U25C A57C A65G A77G it was 0.14.
In the case of U25C A47G U51G U66C U80C, the self-cleavage worked out at 0.07.
For U25C A28C U41C, the self-cleavage came to 0.27.
Regarding U25C A28U U31A U51A U60C U78C, the self-cleavage was 0.08.
As to U25C A28U U48C G52C U54C, the self-cleavage was found to be 0.14.
The same measure for U25C A35U A47G A65G U80C: 0.09.
Turning to U25A U43C U76C U80C, the self-cleavage was determined as 0.23.
Turning to U25C A35G U49A A56G, the self-cleavage turned out to be 0.47.
In the case of U25C A45G U54G it was 0.13.
